Assay results published in PubChem BioAssay (NCATS).
The inconclusive results got no clear call from the source; some entries with a clear call stand among them for comparison. Potencies of inconclusive entries are left out as doubtful fits. The source made the active and inactive calls. Calls come from the whole dose curve; as a rule, active = well fitted inhibition curve with a large enough effect in the repeat runs; inconclusive = weak or mixed curves; inactive = flat fitted curve, though single readings scatter.

Each molecule was assayed against Cytochrome P450 2D6 (Homo sapiens) (UniProt P10635) (assay: Cytochrome P450 family 2 subfamily D member 6 (CYP2D6) small molecule antagonists: luciferase biochemical (cell-free) qHTS assay (AID 1645840; note: nearly all actives have a fitted effect of over 55% in size)). Conditions: P450-Glo CYP2D6 enzyme, luciferin luminescence, 1 h; series mostly up to 57.4 µM.
Sequence of UniProt P10635 (P10635 whole entry, looked up): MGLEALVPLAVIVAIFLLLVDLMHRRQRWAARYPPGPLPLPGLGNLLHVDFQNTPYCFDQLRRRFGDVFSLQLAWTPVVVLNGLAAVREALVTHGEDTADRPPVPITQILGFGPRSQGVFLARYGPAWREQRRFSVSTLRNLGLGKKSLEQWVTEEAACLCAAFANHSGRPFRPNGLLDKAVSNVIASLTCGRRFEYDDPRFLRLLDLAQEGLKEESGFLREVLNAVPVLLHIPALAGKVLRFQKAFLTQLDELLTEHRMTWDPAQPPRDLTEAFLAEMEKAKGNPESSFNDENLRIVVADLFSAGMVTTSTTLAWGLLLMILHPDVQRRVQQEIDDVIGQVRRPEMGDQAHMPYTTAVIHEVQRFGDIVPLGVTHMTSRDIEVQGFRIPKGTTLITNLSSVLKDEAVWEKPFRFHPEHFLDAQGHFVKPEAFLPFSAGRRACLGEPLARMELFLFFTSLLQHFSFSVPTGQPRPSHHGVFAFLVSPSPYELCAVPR
How it was run: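 P450-Glo CYP2D6 system: proluciferin substrate converted by enzyme to luciferin, read by luminescence proportional to activity. Enzyme-substrate mix with compound 10 min at room temperature, then NADPH regeneration 1 h before detection reagent.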
Potency is the fitted concentration of half-maximal effect; tags give direction and shape of the fitted curve.

Row | Compound | Potency
1 | C#CC1(O)CC[C@H]2[C@@H]3CCC4=CCCC[C@@H]4[C@H]3CC[C@@]21C (stereo partly drawn) | inconclusive [inhibitor, partial curve, poor fit]
2 | COC(=O)C1=C(C)NC(C)=C(C(=O)OCCN2CCN(C(c3ccccc3)c3ccccc3)CC2)C1c1cccc([N+](=O)[O-])c1 (stereo not drawn) | inconclusive [inhibitor, full curve]
3 | COc1ccccc1OCC(O)CN1CCN(CC(=O)Nc2c(C)cccc2C)CC1 (stereo not drawn) | inconclusive [inhibitor, partial curve]
4 | O=C(O)CCC(=O)c1ccc(-c2ccccc2)cc1 | inconclusive [inhibitor, partial curve]
5 | O=c1cc(-c2ccccc2)oc2ccccc12 | inconclusive [inhibitor]
6 | c1ccc2c(c1)CCc1ccccc1N2 | inconclusive [inhibitor, single point]
7 | CCCc1nc2c(C)cc(-c3nc4ccccc4n3C)cc2n1Cc1ccc(-c2ccccc2C(=O)O)cc1 | inconclusive [inhibitor, single point]
8 | Cn1ccc2cc3c(cc21)CCN3C(=O)Nc1cccnc1 | inactive
